Assay results reported in PubChem BioAssay AID485281 (National Center for Advancing Translational Sciences (NCATS), 2010).
Values joined by “and” are separate entries in the source; they are usually repeats but may differ in a detail not shown here. Identical values can stand only once. The whole screen tested about 350,000 compounds, of which about 260 (0.074%) were called active. Inconclusive means that the source gave no clear call. Such entries were picked first, then a sample of the others. Calls come from the whole dose curve; as a rule, active = well fitted inhibition curve with a large enough effect; inconclusive = small, poorly fitted or top-dose-only effect; inactive = no such curve, though single readings can be large or run the other way. Potencies beside an inconclusive call are fits to weak or partial responses and may not hold up.

molecular target: Ferritin light chain (Equus caballus) (UniProt P02791); assay: qHTS Assay for Identification of Novel General Anesthetics; conditions: apoferritin/1-aminoanthracene competitive binding, fluorescence; activity change, negative = displacement: at 77.5 µM (top of the series); note: nearly all actives have a fitted effect of over 20% in size
Source text: Source: NIH Chemical Genomics Center [NCGC]
Assay Submitter: Roderic Eckenhoff, University of Pennsylvania
Screening Center PI: Christopher P. Austin, NIH
Probe Development: NIH Chemical Genomics Center [NCGC]
Anesthetic development has remained a largely empirical process. There are growing concerns about the cognitive effects of known general anesthetics and acceleration of the onset of neurodegenerative disease. The compounds' toxicity and multiple specific binding targets in the mammalian brain [4] has made them less attractive as drug leads. In this assay, a GABAergic mimetic model system, apoferritin and a profluorescent 1-aminoanthracene ligand (1-AMA), was used to construct a competitive binding assay for identification of novel general anesthetics. The assay was validated for 1-AMA using other known anesthetics, such as isoflurane (CID:3763) and propofol (CID: 4943), [6].
[1] S.L. Bianchi, T. Tran, C. Liu, S. Lin, Y. Li, J.M. Keller, R.G. Eckenhoff, and M.F. Eckenhoff, Brain and behavior changes in 12-month-old Tg2576 and nontransgenic mice exposed to anesthetics. Neurobiol Aging 29 (2008) 1002-10.
[2] Z. Xie, Y. Dong, U. Maeda, R.D. Moir, W. Xia, D.J. Culley, G. Crosby, and R.E. Tanzi, The inhalation anesthetic isoflurane induces a vicious cycle of apoptosis and amyloid beta-protein accumulation. J Neurosci 27 (2007) 1247-54.
[3] P. Honegger, and J.M. Matthieu, Selective toxicity of the general anesthetic propofol for GABAergic neurons in rat brain cell cultures.
[4] M.F. Eckenhoff, K. Chan, and R.G. Eckenhoff, Multiple specific binding targets for inhaled anesthetics in the mammalian brain. J Pharmacol Exp Ther 300 (2002) 172-9.
[5] C.A. Butts, J. Xi, G. Brannigan, A.A. Saad, S.P. Venkatachalan, R.A. Pearce, M.L. Klein, R.G. Eckenhoff, and I.J. Dmochowski, Identification of a fluorescent general anesthetic, 1-aminoanthracene. Proc Natl Acad Sci U S A 106 (2009) 6501-6.
[6] W.A. Lea, J. Xi, A. Jadhav, L. Lu, C.P. Austin, A. Simeonov, and R.G. Eckenhoff, A high-throughput approach for identification of novel general anesthetics. PLoS One 4 (2009) e7150.
Three uL of reagents (free 1-AMA (50% saturated solution of 1-aminoanthracene
in PBS) in columns 3, 4 as negative control and 1-AMA/apoferritin mixture (10 uM horse-spleen apoferritin in 50% saturated 1-aminoanthracene in PBS) in columns 1, 2, 5-48) was dispensed into 1536-well Greiner black assay plates. Compounds (23 nL) were transferred via Kalypsys pintool equipped with 1,536-pin array (10 nL slotted pins, V&P Scientific, San Diego, CA). Titration of the positive control, propofol, were delivered via pin transfer from separate control plates to the 2nd column of each assay plate. The starting concentration of the control, dissolved in DMSO, was at 160 mM, followed by two-fold dilution points in duplicate, for a total of 16 concentrations. The plates were incubated for 10 min at room temperature, and then read on an EnVision HTS multilabel reader (Perkin-Elmer, Waltham, MA) (end point read, 3 min/plate) using Fura2 BFP excitation filter (380 nm, bandwidth 10 nm) and fluorescein emission filter (535 nm, bandwidth 25 nm) set. A LANCE/DELFIA dichroic mirror with a cutoff wavelength at 400 nm was used to maximize signal accuracy and strength. Vehicle-only plates, with DMSO being pin-transferred to the entire column 5-48 compound area, were inserted uniformly at the beginning and the end of each library in order to monitor for and record any shifts in the background. Activity was computed as the normalized fluorescence response relative to free 1-AMA and 1-AMA/apoferritin complex values. Concentration-effect relationships were derived by using curve fitting algorithms developed in-house (http://ncgc.nih.gov/pub/openhts/). A four parameter Hill equation was fitted to the concentration-response data by minimizing the residual error between the modeled and observed responses.
% is set by controls: 0 for no effect and ±100 for the full control effect; potency is the fitted concentration of half-maximal effect; tags give direction and shape of the fitted curve.

UniProt P02791, sequence (P02791 whole entry, looked up): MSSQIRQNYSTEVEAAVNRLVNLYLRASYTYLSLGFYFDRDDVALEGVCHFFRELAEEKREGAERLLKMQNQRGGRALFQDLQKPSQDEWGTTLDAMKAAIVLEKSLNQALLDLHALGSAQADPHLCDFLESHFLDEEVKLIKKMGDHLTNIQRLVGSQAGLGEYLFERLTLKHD

Potency, inactive:
O=C(CCn1c(=O)c2cccn2c2ccccc21)Nc1ccc(F)cc1

Potency, inconclusive:
Cc1c(C(=O)N2CCCCCC2)oc2ccccc12 31.6 µM [inhibitor, single point]
CC(C)CC(=O)NC(=S)Nc1ccc(S(=O)(=O)N2CCCC2)cc1 39.8 µM [inhibitor, single point]
O=C1c2cccnc2C(=O)N1Cc1cccs1 25.1 µM [inhibitor, partial curve]
CCOc1ccc(NS(=O)(=O)c2ccc3[nH]cc(C(=O)NCc4ccccc4)c(=O)c3c2)cc1 10 µM [inhibitor, partial curve]
CCN1CCN(c2cc(C)c3cc(NC(=O)c4cncc(Br)c4)ccc3n2)CC1 15.8 µM [inhibitor, partial curve]
COc1ccc(Cn2ccc3nc(C)c(C(=O)Nc4ccc(OC(F)(F)F)cc4)cc3c2=O)cc1 50.1 µM [inhibitor, single point]
CCOC(=O)c1[nH]c(C)c(C(=O)OCC(=O)N2c3ccccc3CC2C)c1C (configuration not stated) 14.1 µM [inhibitor, partial curve]
COc1ccccc1OCc1nnc(SCC(=O)c2cc(Cl)ccc2OC)o1 14.1 µM [inhibitor, partial curve]
COC(=O)CN1C(=S)N(c2ccc(OC)cc2)C(=O)/C1=C/c1ccc(N2CCOCC2)cc1 8.91 µM [inhibitor, partial curve]
CCC1CCCCN1CCCNC(=O)c1cn(CC(C)C)c(=O)c2cc(OC)c(OC)cc12 (configuration not stated) 44.7 µM [inhibitor, partial curve]
Cc1ccc(OCCn2nnc3ccccc32)cc1C 28.2 µM [inhibitor, partial curve]
Cc1cc(C)c(NC(=O)/C(=C/c2ccco2)c2ccccc2)c(C)c1 22.4 µM [inhibitor, partial curve]
CN1CCN(CCCOc2ccc(-c3ccccc3)cc2)CC1 39.8 µM [inhibitor, partial curve]
CC(Oc1ccc(Cl)cc1Cl)C(=O)Nc1cccc(O)c1 (configuration not stated) 31.6 µM [inhibitor, partial curve]
COc1ccc(-n2nc3c(N4CCC(C(=O)N5CCCCCC5)CC4)nnc(C)c3c2C)cc1 14.1 µM [inhibitor, partial curve]
O=C1NC(=O)C(=C2CCCCCC2)S1 50.1 µM [inhibitor, single point]
CCOc1cc(/C=N/NC(=O)COc2ccc(C)cc2)ccc1OC(=O)c1cccs1 3.16 µM [inhibitor, partial curve]
Cc1ccc(Nc2cc(C)c3ccc(O)cc3n2)cc1C 28.2 µM [inhibitor, partial curve]
CCOC(=O)c1nnn(CC(=O)NC(=O)Nc2cccc(CC)c2)c1C(=O)OCC 20 µM [inhibitor, partial curve] and 31.6 µM [inhibitor, partial curve]
O=C1/C(=C/c2ccccc2F)SC(=S)N1CC(=O)N1CCCCC1c1cccnc1 (configuration not stated) 25.1 µM [inhibitor, partial curve]
CN(CC(=O)Nc1ccccc1Cl)C(=O)COC(=O)c1ccc(Cl)cc1[N+](=O)[O-] 28.2 µM [inhibitor, partial curve]
O=C1C2=C(Nc3ccccc3SC2c2ccccc2C(F)(F)F)c2ccccc21 (configuration not stated) 28.2 µM [inhibitor, partial curve]
COc1ccc(/C=N/OCC(=O)N2CC3(C)CC2CC(C)(C)C3)cc1OC (configuration not stated) 35.5 µM [inhibitor, partial curve]
Cc1nnc(SCc2ccc(Cl)c(Cl)c2)s1 25.1 µM [inhibitor, partial curve]
CC(C)(CCl)C(=O)Nc1ccc(OC(F)(F)F)cc1 35.5 µM [inhibitor, single point]
O=C(OCn1ncc(Cl)c(Cl)c1=O)c1ccccc1Cl 35.5 µM [inhibitor, partial curve]
COCCNCCCOc1ccc(C(C)(C)c2ccccc2)cc1 17.8 µM [inhibitor, single point]
COc1cccc(NC(=O)c2nn(C34CC5CC(CC(C5)C3)C4)cc2[N+](=O)[O-])c1 14.1 µM [inhibitor, partial curve]
Cc1ccc(NC(=O)CSCc2c(C)noc2C)cc1C 12.6 µM [inhibitor, partial curve]
Cc1ccc(NC(=O)CCC(=O)c2cccs2)c(Br)c1 50.1 µM [inhibitor, single point]
Cc1cccc(-c2nc(CS(=O)CC(=O)NC3CCCC(C)C3C)c(C)o2)c1 (configuration not stated) 15.8 µM [inhibitor, partial curve]
N/C(Cc1ccc([N+](=O)[O-])cc1)=N\OC(=O)c1cccc(Br)c1 25.1 µM [inhibitor, partial curve]
O=C(OCc1nc2ccccc2s1)c1cccs1 56.2 µM [inhibitor, partial curve]
Cc1c(NC(=O)Cc2cccs2)cccc1[N+](=O)[O-] 39.8 µM [inhibitor, single point]
Cc1ccc(C(=O)CSc2ncn[nH]2)cc1 15.8 µM [inhibitor, partial curve, poor fit]
COc1cc(OC)cc(C(C(=O)NCc2ccccc2)N(Cc2ccco2)C(=O)c2ccno2)c1 (configuration not stated) 28.2 µM [inhibitor, partial curve, poor fit]
O=[N+]([O-])c1ccc(Oc2cccc3cccnc23)c(Cl)c1 22.4 µM [inhibitor, partial curve]
COc1ccc(-c2noc(CNC(=O)CCN3C(=O)[C@H]4CC=CC[C@H]4C3=O)n2)cc1 11.2 µM [inhibitor, partial curve]
O=C(COC(=O)Cc1cccc(C(F)(F)F)c1)Nc1ccc2c(c1)OCCO2 28.2 µM [inhibitor, single point]
Cc1ccc(NC(=O)COC(=O)CN2C(=O)NC3(CCCC3)C2=O)cc1S(=O)(=O)N(C)C 14.1 µM [inhibitor, partial curve]
c1ccc(-c2ccc(-c3nc(-c4ccccn4)no3)cc2)cc1 6.31 µM [inhibitor, full curve, poor fit]
c1ccc2sc(NN=C3CCCCCC3)nc2c1 22.4 µM [inhibitor, partial curve]
Cc1ccc(CS/C(Nc2ccccc2C)=C(\C#N)C(N)=O)c(C)c1 35.5 µM [inhibitor, single point]
Cc1oc2ccc(O)cc2c1C(=O)c1ccccc1 7.94 µM [inhibitor, partial curve]
O=C(COC(=O)Cc1ccc(F)cc1)Nc1cc(S(=O)(=O)N2CCOCC2)ccc1N1CCCC1 31.6 µM [inhibitor, single point]
CSc1cccc(NC(=O)Cc2ccccc2[N+](=O)[O-])c1 28.2 µM [inhibitor, partial curve]
CCOc1ccc(CCNC(=O)CN2C(=O)c3cccnc3Oc3ccc(Cl)cc32)cc1 22.4 µM [inhibitor, partial curve]
Cc1cc(C)c2cc(C(=O)N3CCN(c4ncccc4C(F)(F)F)CC3)[nH]c2c1 56.2 µM [inhibitor, single point]
CCOC(=O)c1nnc(-c2ccccc2)nc1Sc1c(Cl)cccc1Cl 28.2 µM [inhibitor, partial curve]
COC(=O)c1c(NC(=O)CN2CCN(C(=O)c3ccco3)CC2)c2c(C)cccc2n1C 31.6 µM [inhibitor, partial curve]
COc1ccc(NC(=O)C2COc3ccccc3O2)cc1 (configuration not stated) 31.6 µM [inhibitor, partial curve]

Activity change, negative = displacement, inactive:
O=C(O)c1cc(NCc2cc(O)ccc2O)ccc1O 3.01%
CCc1ccc(NC(=O)c2ccccc2Br)cc1 -19.6%
Cc1ccc(-c2nn(-c3ccccc3)cc2C2CC(c3cccs3)=NN2C(=O)CCCC(=O)O)cc1 (configuration not stated) -9.44%
CCn1c(C)nc2cc(C(=O)NNS(=O)(=O)c3ccccc3F)ccc21 -8.5%
Cc1nn(C)c(C)c1S(=O)(=O)N(CC(=O)N1CCN(c2ccccc2)CC1)c1ccc(C(C)C)cc1 -5.79%
Clc1ccccc1CN1CCN(/N=C/C=C\c2ccco2)CC1 -13.7%
CCCCCNC(=O)c1ccc2c(c1)nc(C)n2-c1cccc(C)c1 230%
CC(=O)Nc1ccc(Cl)c(C(N)=O)c1 3.54%
COc1ccc2[nH]c(C)c(CN3CCC(C)CC3)c(=O)c2c1 -8.72%
Cc1ccc(NC(=O)CN2C(=O)c3ccccc3C2=O)cc1 -13.7%
CCC(=O)n1nc(-c2ccc(Cl)cc2)nc1SC -15.3%
Cc1cc(C(=O)N/N=C/c2ccc(N(C)C)o2)cs1 -14.6%
COc1cc(-c2nnc(CSc3nnc(N)s3)o2)cc(OC)c1OC -11.6%
Cc1ccc(N2C(=O)C3C4C=CC(CNC(=S)N5CCN(c6ccccc6)CC5)(O4)C3C2=O)cc1 (configuration not stated) -5.78%
CCOC(=O)c1c(C)n(C(=O)c2ccco2)c(=O)n1C(=O)c1ccco1 -6.85%
